# Whole data set: some 16,000 sequences, median “Z-score” near -0.37, cut for the highest 2% near 3.1. The list shows a part of the results.
# Tested on: RBM10 RRM1-ZnF-RRM2 (GST-tagged construct)
# Assay: RNAcompete 7-mer binding Z-score; higher = stronger binding preference
# Summary of the method: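 Bound RNA was identified by microarray hybridisation after GST-tagged RBM10 constructs (20 pmol) had been mixed with 1.5 nmol of a designed pool of 241 399 RNAs up to 41 nt, transcribed from microarray-derived DNA templates. Binding ran for 30 min at 4°C in 1 ml Hepes pH 7.8 buffer with KCl, NaCl, glycerol, DTT, BSA and glutathione Sepharose beads, with four 2-min washes at 4°C afterwards. For every heptamer motif, a one-sided Z-score for enrichment was computed across the probes that contained it.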
row,Sequence,RNAcompete 7-mer binding Z-score
1,AAGGGCA,3.44
2,AGGAAAU,1.45
3,CAGGUAG,2.68
4,GGUCCAA,0.239
5,AGGGUGU,3.03
6,CACAUAG,-0.147
7,UAACUGG,0.294
8,CAUGGGU,2.58
9,CAGAUCA,-0.417
10,UCACACC,-0.77
11,CUGGUAU,-0.3
12,AGACCUU,-1.19
13,ACAAAUU,-0.646
14,CCUCAUC,-0.81
15,GAUCCGU,-0.639
16,GGGCUUA,0.479
17,UCAGGAG,1.03
18,GAUUUGG,1.47
19,CGUCCGG,-0.475
20,CGCGGCA,-0.0925
21,UUUACCG,-0.675
22,AACCAUG,-0.0598
23,UUACCGG,-0.0561

row,Sequence,RNAcompete 7-mer binding Z-score
1,UUAUGGG,1.64
2,GGGCCAA,0.818
3,CUAGCUG,-0.61
4,UGGGAUG,3.22
5,CCGGUCC,-0.679
6,GCGGACU,0.213
7,AACCUUA,-0.799
8,GGUAUCA,1.17
9,CAGUGUU,-0.526
10,AAGCUAC,-0.326
11,UACAGGG,2.34
12,AGAAAAA,0.162
13,CCCAUAA,-0.81
14,CGAUCGU,-0.541
15,AAUAGUG,0.315
16,GGCUAAU,0.115
17,GAACGAC,-0.133
18,GGGCUGU,0.902
19,UGUGGGU,2.9
20,AGGAGGC,1.72
21,AAACCCG,-0.828
22,CUUCGAG,-0.606
23,UCGUAGU,-0.318

row,Sequence,RNAcompete 7-mer binding Z-score
1,ACAUACA,-0.398
2,GAAUUGA,0.286
3,GUAUAGG,2.32
4,GCGCUUG,-0.559
5,CGGGCAC,0.902
6,CCAUUGU,-0.672
7,CCAUCUC,-0.905
8,ACGUUUA,-0.817
9,GAGGGGA,3.29
10,CAUCCAC,-0.69
11,AGAGUGG,2.77
12,GCACUGU,-0.442
13,UUCGUAA,-0.613
14,UAUCUAA,-0.715
15,CCAUGGU,-0.0197
16,GUAACAG,1.3
17,UAACUGU,-0.584
18,UGCAUAU,-0.49
19,UUUGGGC,0.833
20,CCUCGUU,-0.701
21,AUCGCGG,0.0131
22,GCCGAAU,-0.777
23,CGUUUUG,-0.497

row,Sequence,RNAcompete 7-mer binding Z-score
1,CCUGAGC,-0.602
2,GGCGCGA,0.599
3,AGACUAC,-0.901
4,AUUCUAA,-0.744
5,AUCUGCG,-0.621
6,AGGUCGG,1.58
7,GGAGGUC,1.9
8,CAAACUG,-0.446
9,UGUGAGU,0.559
10,UGGUGUC,0.348
11,ACGGAUG,1.44
12,GAUCGGG,2.09
13,GUGGCCG,0.785
14,CGCGAGU,-0.347
15,GUCAGGC,0.625
16,AACUCAG,-0.431
17,CCCUGAC,-0.741
18,UAUAUCA,-0.639
19,ACGCGGU,0.0641
20,ACCAAUG,0.0641
21,UCAUCUG,-0.821
22,GCACAGA,0.0823
23,CGGGAUG,2.31

row,Sequence,RNAcompete 7-mer binding Z-score
1,GAGACAC,-0.0197
2,GUCUUUU,-0.581
3,AAUACAU,-0.34
4,UAAAACG,0.133
5,CACGUUG,-0.26
6,UCGUUGU,-0.449
7,GGAGACU,0.665
8,CGCUUUU,-0.916
9,UUAGUGC,-0.315
10,CCCUAAU,-0.788
11,ACGUGUA,0.195
12,UUCGAAG,-0.14
13,UUCGUGA,-0.366
14,GGGCCAG,1.25
15,GCCUCGC,-0.734
16,UAUUCAU,-0.409
17,UCUUAAC,-0.795
18,UUUGCCG,-0.766
19,CGUCCAC,-0.741
20,ACACAGG,1.58
21,GAGCCCA,-0.741
22,ACAGUAU,-0.133
23,AAAGUGU,0.388

row,Sequence,RNAcompete 7-mer binding Z-score
1,GGUCACG,0.829
2,CAAAGGG,2.78
3,CGACGAG,0.144
4,GGACGUA,1.16
5,AUAGAAA,0.41
6,UUAAGCC,-0.85
7,AGCUUUG,-0.836
8,UUCAAUC,-0.814
9,CGUGUUG,0.0604
10,UCGCGCU,-0.817
11,UUGAUUC,-0.788
12,UGGGUUG,2.56
13,CUCUACG,-0.865
14,GGGAUAC,2.71
15,GAGGCAA,1.31
16,UCUUGGU,-0.428
17,AGACCUC,-1.12
18,AGCGCCU,-0.708
19,AUGAAAA,0.177
20,GACCGAU,-0.479
21,UAACGUU,-0.555
22,GCACUUC,-0.606
23,UCACGUA,-0.409

row,Sequence,RNAcompete 7-mer binding Z-score
1,UCAAUCU,-0.69
2,GGAGACC,0.774
3,AAAGAUC,-0.322
4,UGACUAA,-0.38
5,CUAGGAG,0.534
6,GUCAAUC,-0.315
7,AAGACCA,-0.307
8,AUCCACC,-0.628
9,AGGUGCU,0.701
10,ACCUCGU,-0.814
11,CCUCCAG,-0.639
12,CUGUGAG,-0.0525
13,CAAGCCA,-0.541
14,CCGUGAG,-0.304
15,AGCAUUG,-0.0925
16,UAUAUAA,-0.475
17,UAUUAAA,-0.46
18,UAGUUAG,0.363
19,CUAUGAU,-0.643
20,ACAACGA,0.162
21,GCCAUAC,-0.457
22,GCGGCUA,0.21
23,UCCUCGA,-0.832

row,Sequence,RNAcompete 7-mer binding Z-score
1,AGCAUGU,-0.307
2,AUGAAGG,2.82
3,AUGUCAG,0.0459
4,UCCUUCU,-0.828
5,CAAUUUC,-0.879
6,UGUAUAC,-0.428
7,AACACGC,-0.369
8,UAUUAGU,-0.3
9,GACGACA,0.177
10,UUUGCUU,-0.828
11,CUAACGU,-0.617
12,ACCGUCU,-0.916
13,UAUGUUU,-0.435
14,CUUUCCC,-0.857
15,AUGCCUG,-0.785
16,UACCUUU,-0.901
17,CUCAGGU,-0.195
18,CCAACCG,-0.65
19,ACCGGCG,0.0823
20,AUCCAAG,-0.318
21,UUUCGGC,-0.646
22,CAAGUGG,1.46

# Source: the supplement of paper PMC5499739
